According to article PMC4336329 (PLoS ONE, 2015):
Among all 310,000 compounds or so, about 14,000 (4.5%) showed an effect of 50% or more. The effect is printed as a negative number. This is one part of the list.

The molecules below were run against human ether-à-go-go-related gene (hERG) potassium channel (human, UniProt Q12809) (assay: primary screen, population patch clamp on CHO cells stably expressing hERG).
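Note: peak tail current of the secondary pulse compared with the same well before compound.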

Chain of human ether-à-go-go-related gene (hERG) potassium channel (Q12809 whole entry, looked up): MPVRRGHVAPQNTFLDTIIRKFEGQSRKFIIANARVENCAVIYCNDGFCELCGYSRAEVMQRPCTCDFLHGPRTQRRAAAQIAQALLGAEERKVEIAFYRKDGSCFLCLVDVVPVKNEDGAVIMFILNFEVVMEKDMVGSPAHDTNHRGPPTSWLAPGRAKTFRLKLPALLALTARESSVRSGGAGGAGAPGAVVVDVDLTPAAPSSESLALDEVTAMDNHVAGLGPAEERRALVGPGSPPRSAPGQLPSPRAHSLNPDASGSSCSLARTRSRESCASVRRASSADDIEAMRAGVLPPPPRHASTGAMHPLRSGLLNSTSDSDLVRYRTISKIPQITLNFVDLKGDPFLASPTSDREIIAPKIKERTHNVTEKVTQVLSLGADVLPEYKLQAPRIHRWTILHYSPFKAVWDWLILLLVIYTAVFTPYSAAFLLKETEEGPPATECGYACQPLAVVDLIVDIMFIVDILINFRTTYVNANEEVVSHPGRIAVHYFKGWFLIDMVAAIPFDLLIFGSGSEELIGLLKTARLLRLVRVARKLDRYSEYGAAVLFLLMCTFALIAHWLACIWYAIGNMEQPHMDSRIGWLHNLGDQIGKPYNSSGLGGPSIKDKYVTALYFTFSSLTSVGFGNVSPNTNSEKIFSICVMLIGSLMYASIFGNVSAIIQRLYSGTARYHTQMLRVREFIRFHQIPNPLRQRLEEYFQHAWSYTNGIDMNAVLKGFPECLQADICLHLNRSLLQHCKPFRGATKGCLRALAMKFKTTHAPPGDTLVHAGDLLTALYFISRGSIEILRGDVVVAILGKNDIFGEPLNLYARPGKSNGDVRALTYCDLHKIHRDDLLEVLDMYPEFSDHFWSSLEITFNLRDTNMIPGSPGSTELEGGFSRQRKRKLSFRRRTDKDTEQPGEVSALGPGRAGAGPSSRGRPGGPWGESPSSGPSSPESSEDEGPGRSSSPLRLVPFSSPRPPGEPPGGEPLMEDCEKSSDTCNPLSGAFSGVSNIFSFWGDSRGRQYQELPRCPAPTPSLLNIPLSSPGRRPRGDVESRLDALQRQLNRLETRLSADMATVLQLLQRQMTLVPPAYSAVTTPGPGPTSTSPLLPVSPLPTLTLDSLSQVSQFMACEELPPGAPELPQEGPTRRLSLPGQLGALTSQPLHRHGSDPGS

| Structure (SMILES) | hERG current change (%, negative = inhibition) at 10uM [%] |
| --- | --- |
| CC1=C(C#N)S(=O)(=O)C(C#N)C(c2ccccc2)C1 (centres unmarked) | 6.92 |
| O=C1C2CC=CCC2C(=O)N1Cc1ccccc1Cl (centres unmarked) | -2.93 |
| Cc1cc(C)nc(SCC(=O)N2CCOCC2)n1 | 5.22 |
| COc1ccc(-c2[nH]ncc2CNCC(C)(C)N2CCOCC2)cc1F | 10.1 |
| CCN(CC)C(=O)CN1CCC(c2nc3cc(C)c(C)cc3[nH]2)CC1 | -15.7 |
| N#CCCn1cc(C(=O)NCc2ccccc2)c(-c2ccc3c(c2)OCCO3)n1 | -19.9 |
| Cc1cccc(OCc2nnc(SCC(=O)Nc3nccs3)o2)c1 | -7.46 |
| COc1ccc2cc3cc(C(=O)Nc4ccc5c(c4)OCO5)oc3nc2c1 | -4.86 |
| COc1ccc(C2c3c(ccc4ccccc34)Oc3ncn4nc(Cc5ccc(OC)c(OC)c5)nc4c32)cc1 (centres unmarked) | -1.13 |
| N#CC1=C(N)Oc2n[nH]c(CSc3ccccc3)c2C12C(=O)Nc1ccccc12 (centres unmarked) | -8.42 |
| O=C(OCCOc1cccc(Cl)c1)C1CCN(S(=O)(=O)c2ccccc2)CC1 | -2.75 |
| O=C(O)CCc1nn2c3ccccc3n(CC(=O)c3ccccc3)c2nc1=O | 0.719 |
| CC(=O)NC1C(=O)N=C(SCc2ccccc2)NC1=O (centres unmarked) | 5.93 |
| COc1ccc(C2C(C(C)=O)=C(O)C(=O)N2Cc2ccccc2)c(OC)c1 (centres unmarked) | 15.2 |
| CCn1c(C)nc2cc(N)ccc21.Cl | 0.38 |
| CCOC(=O)C1C(=O)OC(C)(C)C1C(C)C(=O)c1ccccc1 (centres unmarked) | 31.8 |
| O=C(COC(=O)c1cn(-c2ccccc2)nc1-c1ccccc1)Nc1ncc(Cl)cc1Cl | -14 |
| CN(C)S(=O)(=O)c1ccc(S(=O)(=O)N(Cc2ccco2)Cc2ccccc2Cl)cc1 | -4.56 |
| S=c1[nH]nc(CCc2ccccc2)n1Cc1ccccc1 | 10.6 |
| O=C1CC[C@@H](C(=O)O)N1 | 0.184 |
| C[C@H](c1ccccc1)n1nnc(COCc2ccccc2)c1C#CCOCc1ccccc1 | -1.39 |
| O=C(OCC(=O)N1CCN(c2ccccc2)CC1)c1cccc([N+](=O)[O-])c1 | -28.2 |

| Structure (SMILES) | hERG current change (%, negative = inhibition) at 10uM [%] |
| --- | --- |
| O=C(O)Cn1nc(-c2ccccc2)ccc1=O | 9.99 |
| Cc1c(C)n(Cc2ccccc2)c2ncnc(NCCO)c12 | -9.23 |
| O=C(CCNC(=O)c1ccccc1)NCCCc1ccccc1 | 6.54 |
| O=C(CN(C(=O)CNS(=O)(=O)c1ccccc1)C1CCCC1)NCC1CCCO1 (centres unmarked) | 5.82 |
| CCCCC(NC(=O)c1ccc(C#N)cc1)C(=O)NCCC (centres unmarked) | -27.6 |
| COCCCNc1nc2ccccc2nc1NS(=O)(=O)c1ccccc1 | 29.1 |
| CCn1cc(/C=C(\NC(=O)c2ccccc2)C(=O)NCCCN2CCOCC2)c2ccccc21 | 3.43 |
| O=C1c2ccccc2C(O)N1c1ccccc1 (centres unmarked) | 13.8 |
| CCOC(=O)c1cc(-c2cc3ccccc3o2)nc2c1c(=O)[nH]c(=O)n2CCOC | 9.66 |
| CCN(CC)c1cc(C)c2cc(NC(=O)c3ccccc3F)ccc2n1 | -81.3 |
| COc1ccc(C(=O)Nc2ccc(O)c3ccccc23)cc1 | 13.9 |
| Cc1nonc1C1CCCN1C(=O)c1cc(COc2cccc(C(F)(F)F)c2)on1 (centres unmarked) | 5.53 |
| CCOC(=O)CSc1nnc(CNC(=O)c2cc(OCC)c(OCC)c(OCC)c2)n1C | -7.36 |
| Cc1nc(SCC(=O)NCc2ccco2)c2c(=O)n(C)c(=O)n(CC(C)C)c2n1 | 12.1 |
| Cn1c(=O)c(-c2cc(=O)[nH][nH]2)c(O)c2ccccc21 | 9.49 |
| O=C(CCN1C(=O)c2ccncc2C1=O)Nc1cc(F)ccc1F | 8.13 |
| COc1ccc(N2CCN(CC(=O)Nc3cc(C)cc(C)c3)CC2)cc1 | -13.3 |
| CC(=O)Cn1c(CN2CCCCC2)nc2ccccc2c1=O | 4.1 |
| O=C(O)CCCCCNC(=O)c1ccc(C(=O)NCCCCCC(=O)O)cc1 | 15.1 |
| CCCCNC(=O)C(Cc1ccccc1)NS(=O)(=O)c1ccc2c(c1)c(=O)n(C)c(=O)n2C (centres unmarked) | -13.7 |
| Cn1nnnc1SCC(=O)Nc1ccc(Oc2ccccc2)cc1 | -24.1 |
| COCC(=O)Nc1nc(-c2ccc(C)cc2)c(C)s1 | -9.29 |

| Structure (SMILES) | hERG current change (%, negative = inhibition) at 10uM [%] |
| --- | --- |
| Nc1nc(SCc2ccccc2)[nH]c(=O)c1-c1ccccc1 | -2.18 |
| COc1ccccc1N1C(=O)CC(Sc2nc(C)cc(C)n2)C1=O (centres unmarked) | -4.62 |
| COc1ccc(C(=O)N2CCNC(=O)C2CC(=O)Nc2cccc(Cl)c2Cl)cc1 (centres unmarked) | -34.2 |
| COCCCn1c(Cc2csc(Nc3ccc(F)cc3)n2)nnc1SCC(N)=O | -5.91 |
| O=C(CN1C(=O)NC2(CCCC2)C1=O)Nc1ccccc1N1CCCC1 | 19.1 |
| CC(=O)NC12CC3CC(C1)CC(C(=O)N1CCN(S(=O)(=O)c4cccc(F)c4)CC1)(C3)C2 | -26.3 |
| COc1cccc(C2C(C(=O)c3ccco3)=C(O)C(=O)N2CCN(C)C)c1OC (centres unmarked) | 8.87 |
| Cc1sc2ncnc(N3CCC(C(=O)NNC(=O)c4ccccc4Cl)CC3)c2c1C | -22.2 |
| CCCOc1ccc(OCCn2nc(C(=O)O)c3ccccc3c2=O)cc1 | 2.96 |
| COc1ccc(S(=O)(=O)N(C(C)=O)c2ccc(OC(C)=O)c3ccccc23)cc1[N+](=O)[O-] | 4 |
| COc1ccc(-c2cc3ccccc3n2CC(O)Cn2nc(C)cc2C)cc1 (centres unmarked) | 4.62 |
| Cc1noc(C)c1COc1ccc(C(=O)N(C)CCOc2ccccc2)cc1 | -26.2 |
| O=C(COc1ccc([N+](=O)[O-])cc1)Nc1ccccc1N1CCCC1 | -21.8 |
| O=[N+]([O-])c1cccc(-c2ccc(C(=S)N3CCOCC3)o2)c1 | -9.78 |
| COC(=O)c1cc(S(=O)(=O)C(C)C)c(S(C)=O)s1 (centres unmarked) | 14.9 |
| O=C(c1cc([N+](=O)[O-])ccc1N1CCCC1)N1CCCC1 | -0.904 |
| Cc1ccc(NC(=O)CSc2ccc3c(c2)OCCO3)nc1 | 3.51 |
| COc1ccc(/C=N/NC(=O)c2ccc(NC(C)=O)cc2)cc1COc1ccc(F)cc1F | 14.8 |
| COc1ccc(C(=O)COc2ccccc2C(=O)Nc2ccccc2)cc1 | 18.6 |
| O=C(NCCOc1ccc(F)cc1)C1CCC(=O)N(CCc2ccccn2)C1 (centres unmarked) | -8.19 |
| O=C(Nc1ccccc1N1CCCC1)C1CCN(S(=O)(=O)c2ccccc2C(F)(F)F)CC1 | -14.9 |
| O=C(N/N=C/c1cccc([N+](=O)[O-])c1)c1ccc(CN2CCOCC2)cc1 | -19 |

| Structure (SMILES) | hERG current change (%, negative = inhibition) at 10uM [%] |
| --- | --- |
| COc1ccc(C(=O)N[C@H](C(=O)Nc2sccc2C(N)=O)C(C)C)cc1 | 12.8 |
| CCC(c1nnc(SCC(=O)Nc2nnc(-c3ccccc3)o2)n1Cc1ccccc1)N(C)C (centres unmarked) | 12.9 |
| CCOc1ccc(N(CC(=O)NC2CCCCCC2)S(=O)(=O)c2c(C)[nH]c(=O)[nH]c2=O)cc1 | 35.3 |
| CCn1c(SCC(=O)NC2=NCCS2)nnc1C(C)NC(=O)c1ccccc1F (centres unmarked) | 13.7 |
| COc1ccc(OCC(=O)N/N=C2\CCCc3ccccc32)cc1 | -11.6 |
| CCN1CCN(Cc2cccc(Oc3ccccc3)c2)CC1 | -35.9 |
| COc1ccccc1N1CCN(C(CNS(=O)(=O)c2cc(F)ccc2F)c2cccnc2)CC1 (centres unmarked) | -35 |
| O=S(=O)(Nc1nc2ccccc2nc1NCCO)c1cccc(Cl)c1 | 10.4 |
| CN(C)S(=O)(=O)N1CCN(c2ccc([N+](=O)[O-])c(NC3CC3)c2)CC1 | 7.44 |
| COc1cc(/C=N/NC(=O)c2ccc(CSc3nc4ccccc4[nH]3)cc2)cc(OC)c1OC | -8.35 |
| CC(=O)c1ccc(O)c(CC=C(C)C)c1O | 2.1 |
| CC(=O)c1ccc(NC(=O)C2CCCN(C(=O)c3ccc(Cl)cc3)C2)cc1 (centres unmarked) | -29.7 |
| CCCNC(=O)C1(CC2CC(c3ccccc3)=NO2)CCN(C(=O)C2(C)CC2)CC1 (centres unmarked) | -17 |
| COc1ccc(F)cc1C(=O)C1CCCN(Cc2cccn2-c2ccccn2)C1 (centres unmarked) | -83.5 |
| CCOC(=O)c1cnc(-n2nc(C)cc2C)nc1Oc1ccc(C(=O)OC)cc1 | 16.6 |
| CC1(C)SC(=S)N(NC(=O)Nc2ccccc2)C1N(O)C(=O)Nc1ccccc1 (centres unmarked) | 12.7 |
| COc1ccc(CCN)cc1OC | 7.69 |
| Cc1onc(-c2ccccc2Cl)c1C(=O)Nc1cnn(Cc2ccccc2)c1 | -16.3 |
| CC(=O)C1=C(C)N(Cc2ccccc2)C(=O)N[C@H]1c1cccc(C(F)(F)F)c1 | -14.1 |
| CS(=O)(=O)N(CC(=O)N1CCc2ccccc2C1)Cc1ccc(Cl)cc1 | -25.8 |
